The other results are listed elsewhere or left out.
Columns and labels:
Test in all cases: glycan array binding signal (z-score within array); higher = stronger binding
Conditions in all cases: glycan notation: IUPAC condensed, linker removed
[1] = molecular target: Fuc(a1-2)Gal
In short: (§1)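 Glycan array data came from 3228 arrays in the Consortium for Functional Glycomics database, and only arrays with an available protein sequence were kept. Glycan names were put into IUPAC-condensed notation, and columns mapping to the same glycan were averaged. The binding signal is a within-array Z-score, averaged across arrays of one protein sequence run at different concentrations or buffers and across linkers. A negative Z-score can be read as non-binding.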

[2] = molecular target: Fuc(a1-2)Gal(b1-3)GalNAc
In short: as §1

[3] = molecular target: Fuc(a1-2)Gal(b1-3)GalNAc(a1-3)[Fuc(a1-2)]Gal(b1-4)Glc
In short: as §1

[4] = molecular target: Fuc(a1-2)Gal(b1-3)GalNAc(a1-3)[Fuc(a1-2)]Gal(b1-4)GlcNAc
In short: as §1

[5] = molecular target: Fuc(a1-2)Gal(b1-3)GalNAc(b1-3)Gal
In short: as §1

[6] = molecular target: Fuc(a1-2)Gal(b1-3)GalNAc(b1-3)Gal(a1-4)Gal(b1-4)Glc
In short: as §1

[7] = molecular target: Fuc(a1-2)Gal(b1-3)GalNAc(b1-4)[Neu5Ac(a2-3)]Gal(b1-4)Glc
In short: as §1

[8] = molecular target: Fuc(a1-2)Gal(b1-3)GlcNAc
In short: as §1

[9] = molecular target: Fuc(a1-2)Gal(b1-3)GlcNAc(b1-2)Man(a1-3)[Fuc(a1-2)Gal(b1-3)GlcNAc(b1-2)Man(a1-6)]Man(b1-4)GlcNAc(b1-4)GlcNAc
In short: as §1

[10] = molecular target: Fuc(a1-2)Gal(b1-3)GlcNAc(b1-2)Man(a1-3)[Fuc(a1-2)Gal(b1-3)GlcNAc(b1-2)Man(a1-6)]Man(b1-4)GlcNAc(b1-4)[Fuc(a1-6)]GlcNAc
In short: as §1

[11] = molecular target: Fuc(a1-2)Gal(b1-3)GlcNAc(b1-3)Gal(b1-4)Glc
In short: as §1

[12] = molecular target: Fuc(a1-2)Gal(b1-3)GlcNAc(b1-3)GalNAc
In short: as §1

[13] = molecular target: Fuc(a1-2)Gal(b1-3)GlcNAc(b1-3)[Fuc(a1-2)Gal(b1-3)GlcNAc(b1-6)]GalNAc
In short: as §1

[14] = molecular target: Fuc(a1-2)Gal(b1-3)GlcNAc(b1-3)[Gal(b1-4)GlcNAc(b1-6)]Gal(b1-4)Glc
In short: as §1

[15] = molecular target: Fuc(a1-2)Gal(b1-3)GlcNAc(b1-3)[Neu5Ac(a2-6)Gal(b1-4)GlcNAc(b1-6)]Gal(b1-4)Glc
In short: as §1

[16] = molecular target: Fuc(a1-2)Gal(b1-3)GlcNAc6S
In short: as §1

[17] = molecular target: Fuc(a1-2)Gal(b1-3)[Fuc(a1-4)]GlcNAc
In short: as §1

[18] = molecular target: Fuc(a1-2)Gal(b1-3)[Fuc(a1-4)]GlcNAc(b1-2)Man(a1-3)[Fuc(a1-2)Gal(b1-3)[Fuc(a1-4)]GlcNAc(b1-2)Man(a1-3)]Man(b1-4)GlcNAc(b1-4)GlcNAc
In short: as §1

[19] = molecular target: Fuc(a1-2)Gal(b1-3)[Fuc(a1-4)]GlcNAc(b1-2)Man(a1-3)[Fuc(a1-2)Gal(b1-3)[Fuc(a1-4)]GlcNAc(b1-2)Man(a1-6)]Man(b1-4)GlcNAc(b1-4)[Fuc(a1-6)]GlcNAc(b1-4)[Fuc(a1-6)]GlcNAc
In short: as §1

[20] = molecular target: Fuc(a1-2)Gal(b1-3)[Fuc(a1-4)]GlcNAc(b1-3)[Fuc(a1-3)[Gal(b1-4)]GlcNAc(b1-6)]Gal(b1-4)Glc
In short: as §1

[21] = molecular target: Fuc(a1-2)Gal(b1-3)[Fuc(a1-4)]GlcNAc(b1-3)[Gal(b1-4)GlcNAc(b1-6)]Gal(b1-4)Glc
In short: as §1

[22] = molecular target: Fuc(a1-2)Gal(b1-4)Fuc(a1-3)]GlcNAc(b1-2)Man(a1-3)[Fuc(a1-2)Gal(b1-4)[Fuc(a1-3)]GlcNAc(b1-2)Man(a1-6)]Man(b1-4)GlcNAc(b1-4)GlcNAc
In short: as §1

[23] = molecular target: Fuc(a1-2)Gal(b1-4)Glc
In short: as §1

[24] = molecular target: Fuc(a1-2)Gal(b1-4)Glc6S
In short: as §1

[25] = molecular target: Fuc(a1-2)Gal(b1-4)GlcNAc
In short: as §1

[26] = molecular target: Fuc(a1-2)Gal(b1-4)GlcNAc(b1-2)Man
In short: as §1

[27] = molecular target: Fuc(a1-2)Gal(b1-4)GlcNAc(b1-2)Man(a1-3)[Fuc(a1-2)Gal(b1-4)GlcNAc(b1-2)Man(a1-6)]Man(b1-4)GlcNAc(b1-4)GlcNAc
In short: as §1

[28] = molecular target: Fuc(a1-2)Gal(b1-4)GlcNAc(b1-2)Man(a1-3)[Fuc(a1-2)Gal(b1-4)GlcNAc(b1-2)Man(a1-6)]Man(b1-4)GlcNAc(b1-4)[Fuc(a1-6)]GlcNAc
In short: as §1

[29] = molecular target: Fuc(a1-2)Gal(b1-4)GlcNAc(b1-2)[Fuc(a1-2)Gal(b1-4)GlcNAc(b1-4)]Man(a1-3)[Fuc(a1-2)Gal(b1-4)GlcNAc(b1-2)Man(a1-6)]Man(b1-4)GlcNAc(b1-4)GlcNAc
In short: as §1

[30] = molecular target: Fuc(a1-2)Gal(b1-4)GlcNAc(b1-3)Gal(b1-4)GlcNAc
In short: as §1

[31] = molecular target: Fuc(a1-2)Gal(b1-4)GlcNAc(b1-3)Gal(b1-4)GlcNAc(b1-2)Man(a1-3)[Fuc(a1-2)Gal(b1-4)GlcNAc(b1-3)Gal(b1-4)GlcNAc(b1-2)Man(a1-6)]Man(b1-4)GlcNAc(b1-4)GlcNAc
In short: as §1

[32] = molecular target: Fuc(a1-2)Gal(b1-4)GlcNAc(b1-3)Gal(b1-4)GlcNAc(b1-3)Gal(b1-4)GlcNAc
In short: as §1

[33] = molecular target: Fuc(a1-2)Gal(b1-4)GlcNAc(b1-3)GalNAc
In short: as §1

[34] = molecular target: Fuc(a1-2)Gal(b1-4)GlcNAc(b1-3)[Fuc(a1-2)Gal(b1-4)GlcNAc(b1-6)]GalNAc
In short: as §1

[35] = molecular target: Fuc(a1-2)Gal(b1-4)GlcNAc(b1-3)[Fuc(a1-3)[Gal(b1-4)]GlcNAc(b1-6)]Gal(b1-4)Glc
In short: as §1

[36] = molecular target: Fuc(a1-2)Gal(b1-4)GlcNAc(b1-6)GalNAc
In short: as §1

[37] = molecular target: Fuc(a1-2)Gal(b1-4)GlcNAc6S
In short: as §1

B1: Siglec-9 (Homo sapiens), Q9Y336 (protein)
chain: MLLLLLPLLWGRERAEGQTSKLLTMQSSVTVQEGLCVHVPCSFSYPSHGWIYPGPVVHGYWFREGANTDQDAPVATNNPARAVWEETRDRFHLLGDPHTKNCTLSIRDARRSDAGRYFFRMEKGSIKWNYKHHRLSVNVTALTHRPNILIPGTLESGCPQNLTCSVPWACEQGTPPMISWIGTSVSPLDPSTTRSSVLTLIPQPQDHGTSLTCQVTFPGASVTTNKTVHLNVSYPPQNLTMTVFQGDGTVSTVLGNGSSLSLPEGQSLRLVCAVDAVDSNPPARLSLSWRGLTLCPSQPSNPGVLELPWVHLRDAAEFTCRAQNPLGSQQVYLNVSLQSKATSGVTQGVVGGAGATALVFLSFCVIFVVVRSCRKKSARPAAGVGDTGIEDANAVRGSASQGPLTEPWAEDSPPDQPPPASARSSVGEGELQYASLSFQMVKPWDSRGQEATDTEYSEIKIHR
- glycan array binding signal (z-score) [1]: -0.211
- glycan array binding signal (z-score) [2]: -0.228
- glycan array binding signal (z-score) [3]: -0.173
- glycan array binding signal (z-score) [4]: -0.35
- glycan array binding signal (z-score) [5]: 0.837
- glycan array binding signal (z-score) [6]: -0.4
- glycan array binding signal (z-score) [7]: -0.092
- glycan array binding signal (z-score) [8]: -0.16
- glycan array binding signal (z-score) [9]: -0.025
- glycan array binding signal (z-score) [10]: -0.107
- glycan array binding signal (z-score) [11]: -0.098
- glycan array binding signal (z-score) [12]: -0.034
- glycan array binding signal (z-score) [13]: -0.24
- glycan array binding signal (z-score) [14]: -0.118
- glycan array binding signal (z-score) [15]: -0.071
- glycan array binding signal (z-score) [16]: -0.297
- glycan array binding signal (z-score) [17]: -0.057
- glycan array binding signal (z-score) [18]: 0.019
- glycan array binding signal (z-score) [19]: -0.04
- glycan array binding signal (z-score) [20]: -0.335
- glycan array binding signal (z-score) [21]: 0.027
- glycan array binding signal (z-score) [22]: 0.816
- glycan array binding signal (z-score) [23]: -0.265
- glycan array binding signal (z-score) [24]: -0.077
- glycan array binding signal (z-score) [25]: -0.154
- glycan array binding signal (z-score) [26]: 0.234
- glycan array binding signal (z-score) [27]: 0.092
- glycan array binding signal (z-score) [28]: 0.045
- glycan array binding signal (z-score) [29]: -0.015
- glycan array binding signal (z-score) [30]: -0.269
- glycan array binding signal (z-score) [31]: 0.031
- glycan array binding signal (z-score) [32]: -0.112
- glycan array binding signal (z-score) [33]: -0.13
- glycan array binding signal (z-score) [34]: 0.077
- glycan array binding signal (z-score) [35]: -0.338
- glycan array binding signal (z-score) [36]: -0.065
- glycan array binding signal (z-score) [37]: -0.283

From the supplement of paper PMC8728848
